# Test results taken from PubChem BioAssay AID1347417 (National Center for Advancing Translational Sciences (NCATS), 2020).
# Screen size: about 120,000 compounds; about 5,300 (4.4%) were called active. Inconclusive results, whose numbers are uncertain, are shown with a selection of clear calls. Calls follow the shape of the dose curve; as a rule, active = well fitted inhibition curve with a large enough effect; inconclusive = small, poorly fitted or top-dose-only effect; inactive = no such curve, though single readings can be large or run the other way. Potencies of inconclusive entries are doubtful fits and often do not repeat.
# Assay: qHTS Primary assay for Inhibitors of Plasmodium falciparum Dd2 growth in vitro; also: nearly all actives have a fitted effect of over 65% in size;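 as to activity, negative = inhibition: plate controls were DMSO vehicle for no effect and reference drug for full effect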
# Conditions: P. falciparum Dd2 growth, SYBR Green, 72 h; activity, negative = inhibition: at 28.9 µM (top of the series) unless noted; series mostly up to 28.9 µM
# Summary of the method: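 Readout: SYBR Green fluorescence, 485 nm excitation, 535 nm emission, after ~16 h lysis at 37C. Before that, Dd2-infected red cells (2.5% hematocrit) grew 72 h with compound, 29 uM top final concentration.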
# Potency is read from the fitted curve at half-maximal effect; tags tell the direction and shape of the fitted curve.
Structure (SMILES),Potency,"activity, negative = inhibition",outcome
Cc1nn2c(c1-c1cccnc1N1CCOCC1)N(C(=O)Cc1cccc(Cl)c1)CCC2,"inconclusive: 2.82 µM [inhibitor, partial curve, poor fit]",–,–
COc1cccc(CNC(=O)C2CCN(C(=O)c3ncn4c3COC(c3ccccc3)C4)CC2)c1 (centres undefined),"inconclusive: 3.98 µM [inhibitor, single point]",–,–
CCc1ccccc1NC(=O)Cn1c(=O)nc(-c2ccccc2)c2ccccc21,"inconclusive: 6.31 µM [inhibitor, partial curve]",–,–
COc1ccc(OCc2nc(C3CN(C(=O)Cc4ccccc4F)C3)no2)cc1,"inconclusive: 11.2 µM [inhibitor, single point]",–,–
COc1ccc(CCNC(=O)CCn2c(=O)c3ccccc3n(Cc3ccc(Cl)cc3)c2=O)cc1OC,"inconclusive: 5.01 µM [inhibitor, partial curve, poor fit]",–,–
COc1ccc(S(=O)(=O)c2cn(Cc3ccccc3)c3cc(N4CCCC4)c(F)cc3c2=O)cc1,active: 12.6 µM,–,–
CCCOc1cccc(C(=O)Nc2ccc(-c3nc4ccccc4s3)c(Cl)c2)c1,"inconclusive: 10 µM [inhibitor, single point]",–,–
O=C(CCNS(=O)(=O)c1ccc2c(c1)CCN2C(=O)C1CC1)N1CCN(c2ccc(F)cc2)CC1,"inconclusive: 17.8 µM [inhibitor, single point]",–,–
c1ccc(Cn2cc(Cn3ccnc3-c3cc4n(n3)CCNC4)cn2)cc1,–,inactive: -7.39%,–
CC(C)(C)c1ccc(C(=O)N2CCC(c3n[nH]c(=O)n3-c3ccccc3)CC2)cc1,"inconclusive: 8.91 µM [inhibitor, single point]",–,–
CCOCC(=O)N1CCc2nc3cc(-c4ccc(OC)cc4)[nH]n3c(=O)c2C1,"inconclusive: 0.794 µM [inhibitor, partial curve, poor fit]",–,–
COCc1nncn1C1CCN(S(=O)(=O)c2ccc(Cl)cc2C)CC1,–,inactive: -25.9%,–
O=[S+]([O-])(c1ccc(Br)cc1)c1nnn2c1nc(N1CCOCC1)c1ccccc12,"inconclusive: 7.08 µM [inhibitor, single point]",–,–
Fc1ccc(-c2ccc3ncc(Nc4ccnc(N5CCOCC5)c4)n3n2)cc1,active: 0.562 µM,–,–
CCc1nc2ccccc2n1CCCCOc1ccccc1C,"inconclusive: 17.8 µM [inhibitor, single point]",–,–
CC(C)=CCN1CCNC(=O)C1CC(=O)NC(C)(C)c1cccc2ccccc12 (centres undefined),"inconclusive: 10 µM [inhibitor, partial curve, poor fit]",–,–
CCn1cc(C(=O)N2C[C@@H](COC)[C@H](c3ccccn3)C2)cn1,"inconclusive: 3.98 µM [inhibitor, single point]",–,–
CCCC1(C(=O)O)CCCN(S(=O)(=O)c2ccsc2C(=O)O)C1 (centres undefined),–,inactive: -2.41%,–
Cc1cc(OCC(=O)c2ccc3c(c2)N(CC(=O)NCC2CC2)C(=O)CO3)ccc1Cl,–,inactive: -2.56%,–
CN1CCCCC12Cc1ccccc1CN(C(=O)c1ccccc1)C2 (centres undefined),active: 8.91 µM,–,–
CCc1ccc2occ(CC(=O)N[C@H]3[C@@H](COC)[C@H]4OCC[C@@H]34)c2c1,–,inactive: -12%,–
CCC1c2nccn2CCCN1C(=O)CN1CCCC1=O (centres undefined),–,inactive: 22.8%,–

Structure (SMILES),Potency,"activity, negative = inhibition",outcome
CCCC1=Nc2cc(C(=O)NCCc3ccc(C)cc3)ccc2Sc2ccc(C)cc21,"inconclusive: 3.16 µM [inhibitor, partial curve]",–,–
CCOc1cc(CNC(=O)c2ccc(C)c(NC(=O)c3nsc4ccccc34)c2)ccc1OC,"inconclusive: 17.8 µM [inhibitor, single point]",–,–
COc1ccc(N2CCN(C(=O)CN3C(=O)NC4(CCCCC4)C3=O)CC2)cc1,"inconclusive: 11.2 µM [inhibitor, single point]",–,–
Cc1ccc(NC(=O)Cn2ncn3c(cc4ccccc43)c2=O)c(C)c1,"inconclusive: 12.6 µM [inhibitor, single point]",–,–
O=C1CCN(S(=O)(=O)c2ccccc2)CCCN(Cc2cn[nH]c2-c2cccs2)CCN1,"inconclusive: 7.08 µM [inhibitor, partial curve, poor fit]",–,–
CCOc1cc(CN(C)C(=O)c2cc(C)sc2NC(=O)C(C)(C)C)ccc1OC,"inconclusive: 11.2 µM [inhibitor, single point]",–,–
COc1ccc(C(=O)NC[C@H]2COCc3nc4cc(C(F)(F)F)ccc4n32)cc1,"inconclusive: 11.2 µM [inhibitor, single point]",–,–
O=C(c1ccncc1)N1CCc2nc3cc(-c4ccccc4Cl)[nH]n3c(=O)c2C1,–,inactive: 3.27% [at 5.79 µM],–
COC[C@@H]1CN(S(=O)(=O)c2cccc(F)c2)C[C@H]1c1nc(C)no1,–,inactive: -6.41%,–
COc1ccccc1OCCNC(=O)c1cn2ccnc(-c3ccccc3)c2n1,"inconclusive: 20 µM [inhibitor, single point]",–,–
CC(C)N1C[C@H](O)C[C@H]1c1nnc2n1CCN(C(=O)c1ccco1)CC2,–,inactive: -0.405%,–
CCCCNC(=O)c1cccc2c1CCN2C(=O)c1ccc(F)cc1,"inconclusive: 11.2 µM [inhibitor, single point]",–,–
CCn1c(=O)c2cc(C(=O)NC3CCCCCC3)sc2c2ccccc21,"inconclusive: 8.91 µM [inhibitor, partial curve, poor fit]",–,–
CN1CCN(C(=O)C2CCC(=O)N(Cc3cccc(C(F)(F)F)c3)C2)CC1=O (centres undefined),–,inactive: -7.18%,–
CCOc1ccc(NC(=O)NCCc2noc(-c3ccccc3)n2)cc1,–,inactive: -8.48%,–
Cc1cc(C)n(CC(=O)N2CCCCC2C(=O)Nc2ccc(-n3nc(C)cc3C)cc2)n1 (centres undefined),"inconclusive: 11.2 µM [inhibitor, partial curve, poor fit]",–,–
CCOc1ccc(CCNC(=O)Cn2nc(CC)n3c(cc4sc(CC)cc43)c2=O)cc1OCC,"inconclusive: 20 µM [inhibitor, single point]",–,–
COc1ccc(-c2cc3c(cn2)CN(Cc2ccccc2)CCN3)cc1OC,active: 11.2 µM,–,–
CC(NC(=O)c1ccc2c(c1)N(Cc1ccc(Cl)cc1)C(=O)c1ccccc1S2(=O)=O)c1ccccc1 (centres undefined),"inconclusive: 5.62 µM [inhibitor, partial curve, poor fit]",–,–
CCOc1cc2sc(N3CCC(C(=O)Nc4ccc(C)cc4)CC3)nc2cc1Br,"inconclusive: 12.6 µM [inhibitor, partial curve, poor fit]",–,–
CC(C)c1nc(C(=O)N2CCC(CCC(=O)Nc3ccc4c(c3)OCCO4)CC2)cs1,–,–,inactive
Cc1ccc(C)c(NC(=O)CSc2ncc3c(n2)-c2ccc(Cl)cc2N(C)S3(=O)=O)c1,"inconclusive: 11.2 µM [inhibitor, single point]",–,–

Structure (SMILES),Potency,"activity, negative = inhibition",outcome
Cn1nc(C(=O)N2CC[C@@H]3CN(S(C)(=O)=O)[C@@H]3C2)c2ccccc21,–,inactive: 5.85%,–
CCN(C(=O)CN1C(=O)NC(c2ccc(C)cc2)C2=C1COC2=O)c1cccc(C)c1 (centres undefined),–,–,inactive
COCCNC(=O)[C@@H]1C[C@@H](O)CN1C1CCN(C(=O)c2sccc2C)CC1,–,inactive: -6.77%,–
CCN1c2cc(C(=O)Nc3ccc(C)cc3Cl)ccc2C(=O)N2CCCCCC21 (centres undefined),"inconclusive: 3.98 µM [inhibitor, partial curve, poor fit]",–,–
CCOC(=O)c1c(C)[nH]c(CCC(=O)NCCCN2CCN(c3cc(C)ccc3C)CC2)c1C,active: 10 µM,–,–
CC(C)(C)c1cn(C[C@H]2CC3CCN2C[C@@H]3C(=O)NCc2ccccc2)nn1 (some centres undefined),–,–,inactive [at 44.1 µM]
CN1CC(=O)N(C2CCNCC2)Cc2c(NC3CCCCCC3)ncnc21,–,inactive: -8.14%,–
CC(C)CCC(=O)NC1CCN(c2cnn(CC3CC3)c(=O)c2)CC1,"inconclusive: 5.01 µM [inhibitor, partial curve, poor fit]",–,–
Cc1cccc(-c2cnc3n[nH]c(-c4ccccc4)c3n2)c1,"inconclusive: 39.8 µM [inhibitor, single point]",–,–
CCN(CC)S(=O)(=O)c1ccc(NC(=O)CCc2c(C)nc3cc(-c4ccc(Cl)cc4)nn3c2C)cc1,"inconclusive: 1.78 µM [inhibitor, full curve, poor fit]",–,–
CN(C)c1ccc(C(CNS(=O)(=O)c2ccc(Br)cc2)N2CCCC2)cc1 (centres undefined),"inconclusive: 5.01 µM [inhibitor, partial curve, poor fit]",–,–
COc1ccc(Cl)cc1NC(=O)CSc1ccc(-c2sc(C)nc2C)nn1,"inconclusive: 17.8 µM [inhibitor, single point]",–,–
O=C(NCc1ccccc1)N1CCCC(c2noc(COc3ccccc3F)n2)C1 (centres undefined),"inconclusive: 0.794 µM [inhibitor, single point]",–,–
Cc1nc(-c2cccc(Cl)c2)n(CC(=O)Nc2ccccc2)c(=O)c1CCO,"inconclusive: 17.8 µM [inhibitor, single point]",–,–
CN(C)c1ccc(NC(=O)COc2ccc(-c3nnc4n3CCCC4)cc2)cc1,"inconclusive: 2.51 µM [inhibitor, single point]",–,–
Cc1ccc(NC(=O)CSc2nc3nccnc3c(=O)n2CCc2c[nH]c3ccccc23)cc1,"inconclusive: 8.91 µM [inhibitor, single point]",–,–
Cc1cc(=O)n(CC(=O)Nc2ccccc2F)c(N2CCc3ccccc3C2)n1,"inconclusive: 0.178 µM [inhibitor, full curve, poor fit]",–,–
O=C(CCCc1c[nH]c2ccccc12)N1CCN2CCS(=O)(=O)N(C3CC3)C(=O)C2C1 (centres undefined),"inconclusive: 7.08 µM [inhibitor, partial curve, poor fit]",–,–
CCOC(=O)c1c(C)oc2nc(C)nc(NCc3ccc(C)cc3)c12,"inconclusive: 15.8 µM [inhibitor, single point]",–,–
COc1cc(NC(=O)O[C@@H]2CC[C@]3(C)C(CC[C@@H](O)[C@H]3CC(=O)N3CC[C@H](NC(C)=O)C3)[C@]2(C)CO)cc(OC)c1 (some centres undefined),"inconclusive: 12.6 µM [inhibitor, partial curve]",–,–
